Measurements published in patent US20240298601A1, “SESAME PLANTS RESISTANT TO ACETOLACTATE SYNTHASE-INHIBITING HERBICIDES, COMPOSITIONS AND METHODS FOR PRODUCING SAME” (Yissum Research Development Company of The Hebrew …, priority 2021, published 2024).
At least one read-out could not be matched to a standard name with certainty.

How the values were obtained:
[1] = tested on: SiRM plants (mutant SiALS Ala188Val); conditions: field (recommended) rate; 16 DAT; relative to untreated control; n=5
[2] = tested on: wild type (S-416) sesame plants; test: Herbicides dose-response assay (post-emergence, pots), wild type; assay type: in vivo, Sesamum indicum; conditions: field (recommended) rate; 16 DAT; relative to untreated control; n=5

Compound | Shoot DW field rate (% control) SiRM [1] [% control] | Shoot length field rate (% control) SiRM [1] [% control] | Shoot DW field rate (% control) WT [2] [% control] | Shoot length field rate (% control) WT [2] [% control]
COc1cc(OC)nc(NC(=O)NS(=O)(=O)c2cc(NC=O)ccc2C(=O)N(C)C)n1 [Foramsulfuron, 2-[(4,6-dimethoxypyrimidin-2-yl)carbamoylsulfamoyl]-4-formamido-N,N-dimethylbenzamide] | 0.82 | 0.93 |  | 
COCc1cnc(C2=NC(C)(C(C)C)C(=O)N2)c(C(=O)O)c1 (stereo not shown) [Imazamox, 5-(methoxymethyl)-2-(4-methyl-5-oxo-4-propan-2-yl-1H-imidazol-2-yl) pyridine-3-carboxylic acid] | 1.02 | 1.01 |  | 
Cc1cnc(C2=NC(C)(C(C)C)C(=O)N2)c(C(=O)O)c1 (stereo not shown) [Imazapic, 5-methyl-2-(4-methyl-5-oxo-4-propan-2-yl-1H-imidazol-2-yl) pyridine-3-carboxylic acid] | 0.75 | 0.94 |  | 
CCc1cnc(C2=NC(C)(C(C)C)C(=O)N2)c(C(=O)O)c1 (stereo not shown) [Imazethapyr, 5-ethyl-2-(4-methyl-5-oxo-4-propan-2-yl-1H-imidazol-2-yl) pyridine-3-carboxylic acid] | 0.78 | 0.87 |  | 
CCCOc1nn(C(=O)NS(=O)(=O)c2ccccc2C(=O)OC)c(=O)n1C [Propoxycarbazone, methyl 2-[(4-methyl-5-oxo-3-propoxy-1,2,4-triazole-1-carbonyl)sulfamoyl]benzoate] | 0.50 | 0.80 |  | 
COc1cc(OC)nc(Sc2cccc(Cl)c2C(=O)O)n1 [Pyrithiobac sodium, sodium;2-chloro-6-(4,6-dimethoxypyrimidin-2-yl)sulfanylbenzoate] | 0.65 | 0.34 |  | 
COc1cc(OC)nc(NC(=O)NS(=O)(=O)c2ncccc2OCC(F)(F)F)n1 [Trifloxysulfuron, 1-(4,6-dimethoxypyrimidin-2-yl)-3-[3-(2,2,2-trifluoroethoxy)pyridin-2-yl]sulfonylurea] | 1.05 | 0.42 | 0.75 | 0.36
